Reference: paper PMC4336329 (PLoS ONE, 2015)
Among all 310,000 compounds or so, about 2,200 (0.71%) showed an effect of 50% or more. Effects have a minus sign here. The list shows a part of the results.

Molecular target: human ether-à-go-go-related gene (hERG) potassium channel (human, UniProt Q12809)
Test: primary screen, population patch clamp on CHO cells stably expressing hERG

Chain of human ether-à-go-go-related gene (hERG) potassium channel (Q12809 whole entry, looked up): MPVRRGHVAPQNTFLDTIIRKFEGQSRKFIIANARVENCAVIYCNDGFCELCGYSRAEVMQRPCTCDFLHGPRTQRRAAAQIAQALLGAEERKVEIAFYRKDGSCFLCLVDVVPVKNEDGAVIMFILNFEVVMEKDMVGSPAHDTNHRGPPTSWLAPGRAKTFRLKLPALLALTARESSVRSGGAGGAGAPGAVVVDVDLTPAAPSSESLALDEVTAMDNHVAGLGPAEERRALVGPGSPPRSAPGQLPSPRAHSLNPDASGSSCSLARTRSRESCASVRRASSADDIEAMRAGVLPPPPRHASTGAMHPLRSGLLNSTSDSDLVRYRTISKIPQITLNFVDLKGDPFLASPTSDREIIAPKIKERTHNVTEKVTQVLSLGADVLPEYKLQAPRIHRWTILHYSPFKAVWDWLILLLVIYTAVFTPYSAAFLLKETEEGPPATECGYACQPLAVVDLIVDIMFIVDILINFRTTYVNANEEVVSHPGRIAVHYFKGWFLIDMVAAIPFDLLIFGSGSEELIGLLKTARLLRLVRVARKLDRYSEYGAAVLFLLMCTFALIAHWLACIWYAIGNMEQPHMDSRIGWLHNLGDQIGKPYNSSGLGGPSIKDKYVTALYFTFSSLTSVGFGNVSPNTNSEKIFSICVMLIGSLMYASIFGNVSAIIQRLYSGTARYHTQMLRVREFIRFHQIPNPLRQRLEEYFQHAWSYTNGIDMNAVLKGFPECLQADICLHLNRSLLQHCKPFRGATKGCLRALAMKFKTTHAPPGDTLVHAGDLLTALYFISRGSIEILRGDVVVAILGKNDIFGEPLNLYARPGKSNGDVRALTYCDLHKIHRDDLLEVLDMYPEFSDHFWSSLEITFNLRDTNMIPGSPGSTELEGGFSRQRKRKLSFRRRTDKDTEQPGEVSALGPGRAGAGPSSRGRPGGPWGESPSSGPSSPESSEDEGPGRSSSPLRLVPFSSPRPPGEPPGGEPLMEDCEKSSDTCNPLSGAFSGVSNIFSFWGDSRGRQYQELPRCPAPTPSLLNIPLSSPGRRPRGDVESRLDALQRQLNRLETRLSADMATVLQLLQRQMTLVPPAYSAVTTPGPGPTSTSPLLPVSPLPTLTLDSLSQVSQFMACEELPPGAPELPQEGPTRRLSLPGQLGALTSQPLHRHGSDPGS

SMILES | hERG current change (%, negative = inhibition) at 1uM [%]
CCc1c(C(=O)Nc2cc(C)ccc2OC)[nH]c(C)c1C(C)=O | 3.47
CCc1sc(-c2c(C#N)c(N)nc3c2CCCCCC3)cc1[N+](=O)[O-] | 11.8
COCCNC(=S)N(CCCO)Cc1cc2cc3c(cc2[nH]c1=O)OCCO3 | 11.3
COc1ccc(Cc2nnc(NC(=O)Nc3cccc(OC)c3)s2)cc1 | 10.8
CN(C)S(=O)(=O)c1ccc(Cl)c(NC(=O)COC(=O)CCC(=O)c2cccs2)c1 | 12.7
CCN(CC(=O)NC1CCS(=O)(=O)C1)C(=O)COc1ccccc1-c1ccccc1 (stereo not drawn) | 9.06
NNC(=O)Cn1c(-c2ccccc2)cc(=O)n2ncnc12 | 4.8
CC1CCCCN1C(=O)c1ccc(CS(=O)(=O)Cc2ccccc2)cc1 (stereo not drawn) | 4.8
CC(C)Cc1nnc(NC(=O)CCNC(=O)c2ccco2)s1 | 16.9
O=C(N/N=C1\CCS(=O)(=O)c2ccc(F)cc21)c1ccc([N+](=O)[O-])cc1 | 4.44
Cc1cc(-c2ccc(C(C)C)c(S(=O)(=O)NCCN3CCC(C)CC3)c2)on1 | 11.6
CCN(CC)CC(O)c1cccn1-c1ccc(CNC(=O)NC(C)C)cc1 (stereo not drawn) | 16.6
COc1ccc(C)cc1NC1=NC(C)(C)CS1 | 7.42
CC(C)(C)NS(=O)(=O)c1ccc(CCC(=O)Nc2cc(Cl)ccc2Oc2ccccc2)cc1 | 0.892
COc1c(C)cccc1C(=O)Nc1ccc(OCC(=O)N2CCOCC2)cc1C | 26.4
CCOc1ccc(CN(C)C(=O)c2cccnc2SC)cc1OC | 11.8
COc1cccc(C(=O)NCCS(=O)(=O)N2CC(C)CC(C)C2)c1 (stereo not drawn) | 3.24
O=C(Nc1ccc([N+](=O)[O-])cc1)c1cc(Cl)sc1Cl | 8.99
O=C(Nc1ccc(Br)c(Br)c1)C1CCCO1 (stereo not drawn) | 7.17
NC(=O)NO | 3.07
COC(=O)C1=C(c2ccc(-c3ccccc3)c(F)c2)C[C@@H]2CC[C@H]1N2C(=O)N1CCCCC1 | 17.6
N/C(CN1CCCC1=O)=N\OC(=O)c1ccc(Cl)cc1 | 5.34
COc1ccccc1C(=O)N1CCN(c2cccc(C(F)(F)F)c2)CC1 | 2.93

SMILES | hERG current change (%, negative = inhibition) at 1uM [%]
O=c1c2sccc2nc(SCc2cc(=O)n3ccccc3n2)n1-c1ccc(Br)cc1 | -4.46
Cl.OC(CNCc1cccc(Cl)c1)c1ccccc1 (stereo not drawn) | 5.16
Cc1ccc(Cn2cccc(NC(=O)c3ccco3)c2=O)cc1 | 8.08
CN1CCN(C(=O)c2cc(COc3ccccc3)on2)[C@@H](c2ccccc2)C1 | 7.57
CC1CCc2c(sc3nc4n(c(=O)c23)CCS4)C1 (stereo not drawn) | -1.73
CC1(O)C[C@]2(C)N(O)C3CCCC[C@@H]3N2O1 (stereo partly drawn) | 12.7
Cn1cc(C(=O)Cc2ccccc2)c2ccccc21 | 3.47
COc1ccccc1NC(=O)CSc1nnc(-c2ccc(C)cc2)o1 | 7.18
CC1CCN(S(=O)(=O)c2ccccc2[N+](=O)[O-])CC1 | 7.88
CN(Cc1cccc(F)c1)C(=O)c1ccc(S(=O)(=O)C(F)F)cc1 | -4.26
Cc1c(C(=O)OCCOC(C)C)[nH]c2c1C(=O)CC(C)(C)C2 | 4.98
CCOc1ccc(CNC2CCCc3ccccc32)cc1.O=C(O)C(=O)O (stereo not drawn) | -8.67
O=C(NNC(=O)c1cc(OCC(F)(F)F)ccc1OCC(F)(F)F)c1cccc(C(F)(F)F)c1 | -4.84
c1cn(CC2(Cn3ccnc3)COC2)cn1 | 5.69
O=c1[nH]snc1-c1c(Cl)cccc1Cl | 18
COc1ccc(CNC(=O)COC(=O)/C=C/c2ccco2)cc1 | -2.54
CC(C)[C@H]1C(=O)N2CCC[C@H]2[C@]2(O)O[C@](NC(=O)[C@@H]3C=C4c5cccc6[nH]cc(c56)C[C@H]4N(C)C3)(C(C)C)C(=O)N12 | 5.51
CCN(CC)S(=O)(=O)c1cc(NC(=O)Cc2ccsc2)ccc1C | 11.8
c1cn(CCCNC2CCCCCCC2)cn1 | 15
COc1ccc2c(c1)c(=O)oc1cc(O)ccc12 | 10.6
COc1cccc([C@@H]2CC=C(C(=O)O)[C@H](c3ccc(F)cc3)N2S(=O)(=O)c2ccc(C)cc2)c1 | 9.65
CC(c1ccc(F)cc1)n1c(-c2ccc3ccccc3n2)n[nH]c1=S (stereo not drawn) | 9.02
